Test results from PMC12136788.
The other results are listed elsewhere or left out.

T1: UNK ZnF1-3 (human, UniProt Q9C0B0 31-174)
T1 sequence: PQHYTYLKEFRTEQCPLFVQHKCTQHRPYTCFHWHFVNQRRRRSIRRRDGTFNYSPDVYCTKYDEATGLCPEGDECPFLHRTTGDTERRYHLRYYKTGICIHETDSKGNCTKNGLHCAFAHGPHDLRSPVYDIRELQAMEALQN

B1: chrX:40531158:40531159:-_ENSG00000180182_ENST00000324817|hu_mus|FALSE|FALSE (ssRNA)
RNA: GGGAGUUCUACAGUCCGACGAUCAUGCAGAUUUCCUGGAGACUGUGUGUGCAUCAUAGAGGGGGACUGAUUAACUGUGCUGUGAUAGGAUGUAGGGGGUGAAGUAAGAGGGUAAGCGCCUGAUGUCCCUGGCUGCUUUGGAAACAACAGAGGAUUGAGCAUCA
B2: chr16:3748964:3748965:+_ENSMUSG00000022529_ENSMUST00000023176|mus_hu|FALSE|FALSE (ssRNA)
RNA: GGGAGUUCUACAGUCCGACGAUCUUCAGUGCAGUCCACACCCAUACACAGUCUUUCAGCUGCAUGUAUUCUCUGGUGCCUAAUUAGGUUUGAGUUGUUAGAGAAAUUUUUGCCACACAAGGGACAUAAAUGGAGUUUCUUUGGCAACAGAGGAUUGAGCAUCA
B3: chr16:47694578:47694579:+_ENSG00000102893_ENST00000566044|hu_hu|motif|central (ssRNA)
RNA: GGGAGUUCUACAGUCCGACGAUCUUCAGGAGCACUAGGGGUGCUGCUUUGCCGUUUGACUUUUGAAUGUUUGGGAGGUUCGGGUUCCUCAAAACUCUUAAAUUCUGGAAGCUCUUCUGUGUCACUGAUUCGUAGGAAAUCAAGCAACAGAGGAUUGAGCAUCA
B4: chrX:35795285:35795286:-_ENSMUSG00000016534_ENSMUST00000061755|mus_hu|FALSE|FALSE (ssRNA)
RNA: GGGAGUUCUACAGUCCGACGAUCAUUCAUCUGCCAUUUUGCAUAAAGGCAAGUGGCAUUUUCUGAAUCUGUCAAAUUAAGUUCCAAUGCAUAAGACCGCACAGCUCCCAGGACUAGGCAGACCAGAACGAGCCCUGAGCCCGGCAACAGAGGAUUGAGCAUCA
B5: chr17:64801638:64801639:+_ENSG00000154229_ENST00000413366|hu_mus|hu_hu_hu_mus_False|8_18 (ssRNA)
RNA: GGGAGUUCUACAGUCCGACGAUCUAUAUAUAUAUAUACAUAUGUACACAUAUAUAGUAAAACCCUAGUUAAACGUGUAAAGUAGCCAUUCAUUUUUAAAAUUACAUCUACAUUAAAAAAGUAAUCUAUCUGAUACAGUGCCAGCAACAGAGGAUUGAGCAUCA
B6: 109382212_109382332_5403_CDS_ENSG00000153201_ENST00000283195|human|control|control (ssRNA)
RNA: GGGAGUUCUACAGUCCGACGAUCGAACAUUCCUUCAAAUCCACUCUUUGGAGCCUUGCUUAUCUCCGAAGAGGCAGGUGUUGAAAUUGCAGUUGUUUGAUUUUGUUUACUUGGACACUGACAAGCAAUACAUUUGGUAGCACUCAACAGAGGAUUGAGCAUCA
B7: 49110423_49110543_198_3pUTR_ENSG00000129315_ENST00000261900|human|control|control (ssRNA)
RNA: GGGAGUUCUACAGUCCGACGAUCCACCGUUUGUUGUUGUUCUUCCUCUCUCCCUCCAUAGUGCUUCAACCAGAAGGCAGCGGCGAAGGCUGCAGGCACUUCCCAGCGUCACCUAAGAGGCGACCCACAUCCGCUGUGCGGGGGCAACAGAGGAUUGAGCAUCA
B8: 21556573_21556693_1470_3pUTR_ENSMUSG00000021820_ENSMUST00000100837|mouse|control|control (ssRNA)
RNA: GGGAGUUCUACAGUCCGACGAUCGGUCUCCUCUGACUGACUGGUGCGAGGCCGACCCUGCCCGUCGAUGUACUGAGUGAGCCGGAUAUAGGCGAUGCAAGCUGCGUCCUCCCCAAUCACGUGGACGUGAGGGUUUAGGAUGGUCAACAGAGGAUUGAGCAUCA
B9: chr4:33332862:33332863:-_ENSMUSG00000040128_ENSMUST00000049357|mus_hu|motif|central (ssRNA)
RNA: GGGAGUUCUACAGUCCGACGAUCAUAUACAAAACACCUGCAAUGUGGGCAGGGCAAAAUACAUACUUUCAUAACAAAACGGUAAUAUACCUCUCAAGUAUGAACAAUAUACACAUAAUACAUGGUAUACAGUAUUUACAAAAUCAACAGAGGAUUGAGCAUCA
B10: chr1:39494564:39494565:+_ENSG00000168653_ENST00000372967|hu_hu|hu_hu_hu_mus_True|8_58 (ssRNA)
RNA: GGGAGUUCUACAGUCCGACGAUCAUGCAUUCGCCUCAUCGUUUUGUACCGAAGCAAGCACUCUUCGAAGUCAUCGAAUUCUAUCUUGCACUCCUUUUUCGCCCGGGUCCCACCGAUCCCGUGUGCACAUUCUAUCCACUCUUUCAACAGAGGAUUGAGCAUCA
B11: chr1:157179356:157179357:-_ENSMUSG00000026469_ENSMUST00000027741|perfect_dup|FALSE|FALSE (ssRNA)
RNA: GGGAGUUCUACAGUCCGACGAUCCAGGAUUAGACUGAGGUAGAACUCACUGAAGGCCAGUUUAAGGUCUUUAAUAUUUCUAUGUUGGACACGUUCCUCAUGGGACAAGUGGAAGACUGGCUUUCUGCGUUGUCGCAGCGUAGUCAACAGAGGAUUGAGCAUCA
B12: chr2:42509997:42509998:+_ENSG00000143924_ENST00000318522|hu_mus|motif|central (ssRNA)
RNA: GGGAGUUCUACAGUCCGACGAUCUCGCUGAGUCCUCUCCUCAUAAUUAAACAGGACUACCACUGAGGCGAUAAAAUAAACGGUCUCCCCUGUGGGAAGCAGGUAUACAUUCGCUCUACAGUCCUUUCCUCGAUAACCGUAUACCAACAGAGGAUUGAGCAUCA
B13: 93300168_93386495_452_CDS_ENSG00000113391_ENST00000395965|human|control|control (ssRNA)
RNA: GGGAGUUCUACAGUCCGACGAUCAGAUACUUUUUUCAAAUUACAAUCCUUUUCCAGGAGCUCAUAUACAUACUUCGUGAUGAUCUCUCCUAGAGCCUCGUAUCUUUUCUGGUUCCAUCUGUGUAAAUCUUCCCGGUAGUUAAACAACAGAGGAUUGAGCAUCA
B14: 49338038_49338158_210_CDS_ENSG00000011260_ENST00000225298|human|control|control (ssRNA)
RNA: GGGAGUUCUACAGUCCGACGAUCCCGUCUCUCUUCCUCCGCCGCCGCGACUGCAAUCGCAGCGGCCGCCGCGCUCGGCCGGGCCGGCGGUUUCCGCUGGGAUGAAGGGGCAGGCUUUUGGGGAGGCCCGCCUGGCCCCGCUCCCAACAGAGGAUUGAGCAUCA
B15: 124053616_124053736_143_ncRNA_ENSMUSG00000049550_ENSMUST00000125340|mouse|control|control (ssRNA)
RNA: GGGAGUUCUACAGUCCGACGAUCACUUGUGACUUCGUCCCGGGUUCUCCCCAGCUCCUCGGCAAGUUUGACGUUCUCUUCCUGCAGUGCUGAAAGCUGCUGGGACUUCUGAGCUGCUGCCUGCUUUAGGGUUUCUCUGAAAGGCAACAGAGGAUUGAGCAUCA
B16: chr2:32526493:32526494:+_ENSG00000119820_ENST00000437765|hu_mus|FALSE|FALSE (ssRNA)
RNA: GGGAGUUCUACAGUCCGACGAUCAGAUCCAACCACCAAAAGUAUAGGGGCUAUUACAAUGAGAGGAAGUAAUGAAUAUCCUAUAACUCCAAGAACUUGGCCAUAUGCAACUUCUCCACCAAGAACUCUAGCCAGUAAGAAAAUCAACAGAGGAUUGAGCAUCA
B17: chr13:6597965:6597966:-_ENSMUSG00000021196_ENSMUST00000144053|mus_hu|FALSE|FALSE (ssRNA)
RNA: GGGAGUUCUACAGUCCGACGAUCCAGCUCCAGGAGUCCCAGGUAGGCCUCGAAUCCACCGAUGAUCAGCAGCGCGUUGAUGCUGUGCGUGCGCAUCUGUGUGGCGAUCUCUUCCAAGUACUUCCCCGGGAGAACGCGUUUUGUCAACAGAGGAUUGAGCAUCA
B18: chr17:45747064:45747065:+_ENSG00000108424_ENST00000290158|hu_hu|hu_hu_hu_mus_True|28_38 (ssRNA)
RNA: GGGAGUUCUACAGUCCGACGAUCGCCCACAGUCCACGCUGUUGUGUCUCGAACAACUACACUGGGGUCUUUCAUUAGUUCUAUUAGGGUGGGCAUAGCCUGUAUAACUAGUGGUUUCAGUUGAUUAGGCUCUGGUCCUUCCAACAACAGAGGAUUGAGCAUCA
B19: chr20:57485947:57485948:+_ENSG00000087460_ENST00000306090|hu_mus|FALSE|FALSE (ssRNA)
RNA: GGGAGUUCUACAGUCCGACGAUCGGGGUUUUUCAGAAUCACUGGGGGAAAAAGGAAAGGUUGCGGUGUUGAUCAUGCCCUAUGGUGGGUGACCAACUGCUUGUACAAUUACGUUUCACUCUUAAUUAAUUGUGCUUAAGGCUGCAACAGAGGAUUGAGCAUCA
B20: chr12:93804944:93804945:-_ENSG00000177889_ENST00000549833|hu_hu|FALSE|FALSE (ssRNA)
RNA: GGGAGUUCUACAGUCCGACGAUCUCAUGAAACGUACUUUAGGGGCUGCCAUUGGGUAUUCUUCUGGAAGGAAUAGUUCAAGUUUAAAAGUCCCUCCCUCAAAGGGGGAAUCCUGAGGGCCAGCAAUGACCACAUGAAAAUAACCAACAGAGGAUUGAGCAUCA
B21: chr22:32879901:32879902:+_ENSG00000100225_ENST00000397426|hu_mus|hu_hu_hu_mus_False|98_98 (ssRNA)
RNA: GGGAGUUCUACAGUCCGACGAUCCUCUUCCAUACUCGCAUUAUCUUGAAUUGACUCAGCUUCAACAUUUUGACUAGGCCCUUCCAUACUGUCAUCAGUCCAGGCAUCAAAUGGGGUGGCCUGUCCUUGGGAUGAAUCAGUCCCCAACAGAGGAUUGAGCAUCA
B22: chr1:58468927:58468928:-_ENSMUSG00000026034_ENSMUST00000148330|mus_mus|mus_mus_mus_hu_False|38_98 (ssRNA)
RNA: GGGAGUUCUACAGUCCGACGAUCAAUUACUGAAAAAUGAAAGAUGUACCUUAGCUAUGUACUUAAUGAACCAAAUUACCCAAACAAAAUAAACAUGUUUACAAAUUAAUGUUAAGAAUUUACAAAGCUGUACAAAAUAACUUACAACAGAGGAUUGAGCAUCA

These binders were tested against T1, UNK ZnF1-3 (assay: nsRBNS (natural sequence RNA bind-n-seq); RBNS binding buffer (assumed for nsRBNS): 25 mM Tris pH 7.5, 150 mM KCl, 3 mM MgCl2, 0.01% Triton X-100, 500 ug/ml BSA, 20 U/ml SUPERase-In, 4 C; UNK is unkempt and MSI1 is Musashi-1; names of the RNAs are library labels; protein concentration not given here; high values mean tight binding).
With B1 the binding signal was 1.48 enrichment R. For B2, the binding signal was 0.781 enrichment R. B3 gave a binding signal of 0.849 enrichment R. Work on B4 yielded a binding signal of 0.791 enrichment R. B5 showed a binding signal of 1.16 enrichment R. B6 was tested, and the binding signal was 0.718 enrichment R. For B7, the binding signal was 0.96 enrichment R. Work on B8 yielded a binding signal of 0.622 enrichment R. In the case of B9, the binding signal is reported as 0.804 enrichment R. For B10, the binding signal was 0.586 enrichment R. For B11, the binding signal was 0.819 enrichment R. B12 showed a binding signal of 1.17 enrichment R. In the case of B13, the binding signal is reported as 0.876 enrichment R. B14 was tested, and the binding signal was 0.861 enrichment R. B15 gave a binding signal of 0.519 enrichment R. With B16 the binding signal was 1.9 enrichment R. For B17, the binding signal was 0.637 enrichment R. Binder B18 has a binding signal of 0.54 enrichment R. B19 gave a binding signal of 0.933 enrichment R. For B20, the binding signal was 1.08 enrichment R. Binder B21 has a binding signal of 1.23 enrichment R. Binder B22 has a binding signal of 0.849 enrichment R.
